Measurements taken from the supplement of paper PMC10126150.
Values marked as one replicate rest on one cluster of the flow cell; about a third of the high ones do not repeat.

Test system: ATP
Assay: switch fluorescence ratio, 500 uM ATP over buffer (Cy3 cluster intensity, sum of 5 cycles each) (fold (ratio)); higher = stronger signal-on switching upon ATP binding; sequences stand for … in TCGTCGGCAGCGTCAGATGTGTATAAGAGACAGTTTTTTTTTTTTTTTTTTTTTTTTT…TC
Conditions: aptamer strand: ATP DNA aptamer (quencher-CACCTGGGGGAGTATTGCGGAGGAAGG + anchor), 100 nM annealed; ATP concentration: 500 uM; one replicate
Summary of the method: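 For every switch-domain sequence, the fluorescence ratio is the mean of per-cluster values, each being summed target-cycle Cy3 intensity over summed buffer-cycle Cy3 intensity. Clusters outside 100-1000 RFU were excluded. On a modified Illumina MiSeq flow-cell, the Cy3-labelled switching-strand clusters were annealed to 100 nM quencher-labelled ATP aptamer, imaged in selection buffer and then after 15 min with 500 uM ATP at 22 °C. Five such cycles were run, with NaOH stripping and re-annealing between them.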
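Also: ATP exposure 15 min at 22 °C before imaging.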

Sequence | switch fluorescence ratio
ATTTGGACAT | 1.05
CAGTTTGGGA | 0.965
CAGCAAACGG | 1.79
CTTGTTTGTT | 1.03
AAGTCGTCGT | 1.06
TGGCAGCCTC | 0.968
GAGGTAGTGA | 1.02
TATATGGCTA | 0.991
GTGTGGGGAA | 0.979
CAGTCGTCGT | 1.04
GTAGATAGGT | 0.965
TCATGGCAGC | 0.957
CGAACTCGCC | 1.1
CGGCACTTCA | 1.03
TGCGCGTGGC | 1.01
GGATATCGGG | 0.946
TTCCGACCTG | 1.03
AAGGGGGGT | 0.998
GGAGTTAGAA | 0.994
CATCAATTGG | 0.983
TTAAAACGG | 0.93
GGCCCGCGGT | 1.02
GCTAGCAGG | 0.979

Sequence | switch fluorescence ratio
GCGTTTAGTT | 0.998
TCTAGAGACC | 0.993
CAAAGCATC | 1.43
ACTTATTCGC | 1.06
GAATGTCCCA | 1
GGGAGAAGCA | 0.98
GGGATTCCAT | 1.01
ACCCCGTCGT | 1.05
CCGTCATATG | 1.09
AGACTCGGTG | 0.999
GACCACGCAT | 2.19
TATTGTTACG | 1.02
CCATCAGTAA | 1.49
GATGAGAGTA | 1.03
GTGCGCGCCC | 1.01
ACGACCGTTA | 1.06
ACCTCGGCTT | 1.25
GACACTCAC | 1.35
AGGATGTTAA | 0.926
ATGATGGCAG | 1.05
CGGGAAGGCG | 0.977
GGCTGTGAGG | 0.94
TAGCTTTAGG | 1.07

Sequence | switch fluorescence ratio
GAATTTAGGA | 1.04
GCGAGGGTGC | 1.06
TATAGGACGG | 1.01
TGGTTTTTAT | 0.991
TACATATCGT | 1.04
GGCCGCGGGG | 1
GTATCGCCCC | 1.05
CTGAGGTTGT | 0.959
AGACGTTCAG | 0.995
TTCGGTATGG | 0.981
AGAATGTTTG | 0.959
TACGCCGCGC | 2.66
TGTTACTTG | 0.994
ATGATTATTA | 0.967
TTGAATCGCT | 0.993
ACGGTTATC | 1.08
TAGCACCTAT | 1.04
CGTGTGCGAT | 0.981
AAAAGGCGCA | 1.09
TGGTTAGTAT | 1.03
AGTCCTCTTG | 1
AAGTCAAAAG | 0.963
ATGACGCATA | 3.94

Sequence | switch fluorescence ratio
CGGTCATGAT | 0.975
TTTAACTTA | 1.03
GCCTTTGGTA | 1.03
CGTACAGCTT | 1.06
ATCGGCCTTT | 0.993
GCGTAAGTGT | 1.03
ACCAAGAGTC | 1.05
CTCATAACCT | 1.83
CTCGATGGGT | 0.995
GGACGCGTTT | 1.01
AGCATTTCCA | 1.05
TGAGGAGCG | 0.951
GTTTTCGAGT | 1.02
TATAAGTTA | 0.986
AAGTCTGTCG | 0.963
TTGCTACCGA | 1.06
TTGGACTTAT | 1.01
CCAATATGGG | 1.08
CATGTGAGAA | 1.01
CTAACATTGG | 1.02
CCCCTAGAAC | 1.15
ATATCTTCAT | 1.03
GATATGCAGG | 1.04

Sequence | switch fluorescence ratio
CTCTGGAGAA | 1.09
GGATCTCGCA | 0.967
GTACTTTAAA | 1
ACATCTGAGC | 1.05
CAGTTACCAT | 1.04
TAGGATTTT | 1.02
AGGCTTAACT | 1.03
ATAAGACACC | 1.06
GTACGCCTTA | 1.06
AATCCTGAC | 2.44
TACCGTGACG | 1.15
TGAGTGGTTT | 0.998
AGTAAAATCC | 1.04
AGTATTAGTT | 1.01
TGGGATTGCA | 0.97
TAAGGGCGTG | 1.03
GAGTATTCCC | 1.01
TTTCAATACA | 1.06
AAATTTTATC | 0.947
TGATCGCTAA | 1.15
GAGCCTTCGT | 1.04
CTAGGTGGTG | 1.02
GCCTTGTGAC | 1.08

Sequence | switch fluorescence ratio
TGCAATTTAA | 1.01
AAAATTAAAC | 1.04
GAAGTGCAGC | 1.04
AAAAACAATT | 0.956
GGTATCGCTC | 0.996
TCGACGTATT | 1.09
TGGCTTCCTC | 2.76
TATTTGGAG | 0.987
ATTTTCACGT | 1.02
AGTTACGAGG | 1.01
TTTATTACGA | 1.02
CGGGTTCCCT | 1.03
TGATTTTTAA | 0.976
TGAAAAGATT | 0.964
TGGTCGAATT | 0.958
GGCGCTCATG | 0.999
TGGTTGGATT | 0.939
CCTCCTGGA | 1.03
GTCCTGTTAC | 1.03
AGGACTGGCC | 1
CTAGTTTAC | 1.01
CGGGTTGTAC | 1.07
ACCACGGGGA | 1.01

Sequence | switch fluorescence ratio
TTGGTTAGAT | 0.99
TATCAGAATA | 1
AGCCGCCACG | 1.05
CGCACAGCGA | 1.04
AAGCTTCTTT | 1.08
GGCATTTTCG | 1.04
ATATGGCGCC | 0.975
TTATAAAGCA | 1.02
CGCATAACAA | 1.22
ACGCATGGAC | 3.21
TAAATGCGAA | 0.97
TGATGACTTA | 1.02
GACATTCAAC | 1.02
GTTTACATTA | 0.979
AGGACTTG | 1.01
TTCACTGTGT | 0.989
CCTTGGTCAC | 1.16
GGTTATGCAC | 1.07
TGTCTTCATT | 1.03
